Test results published in the supplement of paper PMC4604168 (melanoma cell lines).
The list shows a part of the results. Repeats are few or missing, and single values can be far off.

These molecules were tested on RPMI7951 (assay: cell count relative to DMSO control; melanoma cells; higher = more viable cells). Details: library dose: standard library concentration; 72 h.
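Further: cells treated in 1,536-well plates, then fixed and DAPI-stained, with nuclei counted from automated high-throughput microscope images.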

Row | SMILES | cell count [%]
1 | Cn1cc(/C=C2\C(=O)Nc3cccnc32)c2ccccc21 + CCCCCCCCCCCC1=C(O)C(=O)C=C(O)C1=O [Embelin] (first compound 2 µM, partner dose 6 µM) | 81.2
2 | COc1ccc2c(c1)CCC1C2CCC2(C)C(NCCCCCCN3C(=O)C=CC3=O)CCC12 (stereo unspecified) + CCCCCCCCCCCC1=C(O)C(=O)C=C(O)C1=O [Embelin] (first compound 2 µM, partner dose 6 µM) | 70.8
3 | COc1cc2ncnc(Nc3ccc(Oc4ccccc4)cc3)c2cc1OC + Cn1cc(/C=C2\C(=O)Nc3cccnc32)c2ccccc21 [GW441756] (first compound 10 µM, partner dose 2 µM) | 50.3
4 | Cc1cc([N+](=O)[O-])ccc1NS(=O)(=O)c1cc(Cl)ccc1Cl + COc1cc(N2CCC(N3CCN(C)CC3)CC2)ccc1Nc1ncc(Cl)c(Nc2ccccc2S(=O)(=O)C(C)C)n1 [NVP-TAE684] (first compound 5 µM, partner dose 0.4 µM) | 108
5 | N#Cc1c(O)c2c(-c3ccc(-c4ccccc4O)cc3)csc2[nH]c1=O + COc1cc(N2CCC(N3CCN(C)CC3)CC2)ccc1Nc1ncc(Cl)c(Nc2ccccc2S(=O)(=O)C(C)C)n1 [NVP-TAE684] (first compound 10 µM, partner dose 0.4 µM) | 91.6
6 | O=S(=O)(c1ccccc1)N(CC(F)(F)F)c1ccc(C(O)(C(F)(F)F)C(F)(F)F)cc1 + Cc1cc([N+](=O)[O-])ccc1NS(=O)(=O)c1cc(Cl)ccc1Cl [FH535] (first compound 7 µM, partner dose 5 µM) | 59.9
7 | COc1ccc(-c2ccc3c(N4CCOCC4)nc(N4C[C@@H](C)O[C@@H](C)C4)nc3n2)cc1CO + Oc1nc(-c2ccc(C(F)(F)F)cc2)nc2c1CSCC2 [XAV939] (first compound 0.1 µM, partner dose 10 µM) | 79.6
8 | COc1ccc(-c2ccc3c(N4CCOCC4)nc(N4C[C@@H](C)O[C@@H](C)C4)nc3n2)cc1CO + O=C1NC(=O)/C(=C/c2ccc(-c3ccc(F)cc3O)o2)S1 [AS252424] (first compound 0.1 µM, partner dose 5 µM) | 72.8
9 | COC(=O)c1sccc1S(=O)(=O)Nc1ccc(Nc2ccccc2)cc1OC + Cc1cc([N+](=O)[O-])ccc1NS(=O)(=O)c1cc(Cl)ccc1Cl [FH535] (first compound 5 µM, partner dose 5 µM) | 76.3
10 | CCN(CC)CCCCNc1ncc2cc(-c3cc(OC)cc(OC)c3)c(NC(=O)NC(C)(C)C)nc2n1 + Cn1cc(/C=C2\C(=O)Nc3cccnc32)c2ccccc21 [GW441756] (first compound 0.5 µM, partner dose 2 µM) | 100
11 | CCN(CC)CCCCNc1ncc2cc(-c3cc(OC)cc(OC)c3)c(NC(=O)NC(C)(C)C)nc2n1 + c1cc(-c2cnn3cc(-c4ccc(OCCN5CCCCC5)cc4)cnc23)ccn1 [Dorsomorphin] (first compound 0.5 µM, partner dose 2 µM) | 97.7
12 | CCN(CC)CCCCNc1ncc2cc(-c3cc(OC)cc(OC)c3)c(NC(=O)NC(C)(C)C)nc2n1 + O=C(O)C(=O)Nc1sc2c(c1C(=O)O)CCNC2 [TCS401] (first compound 0.5 µM, partner dose 8.33333 µM) | 105
13 | COc1ccc(COc2ccc(Cc3cnc(N)nc3N)cc2OC)cc1 + O=S(=O)(c1ccccc1)N(CC(F)(F)F)c1ccc(C(O)(C(F)(F)F)C(F)(F)F)cc1 [T0901317] (first compound 5 µM, partner dose 7 µM) | 95.3
14 | O=S(=O)(c1ccccc1)N(CC(F)(F)F)c1ccc(C(O)(C(F)(F)F)C(F)(F)F)cc1 + Cn1cc(/C=C2\C(=O)Nc3cccnc32)c2ccccc21 [GW441756] (first compound 7 µM, partner dose 2 µM) | 93
15 | Cn1cc(/C=C2\C(=O)Nc3cccnc32)c2ccccc21 + CC(C)CCN1c2nc(Nc3cc(F)c(O)c(F)c3)ncc2N(C)C(=O)C1C [BID1870] (first compound 2 µM, partner dose 1 µM) | 73.3
16 | COC(=O)c1sccc1S(=O)(=O)Nc1ccc(Nc2ccccc2)cc1OC + COc1cc2ncnc(Nc3ccc(Oc4ccccc4)cc3)c2cc1OC [SrcI1] (first compound 5 µM, partner dose 10 µM) | 63.5
